Measurements from PubChem BioAssay AID1346428 (National Center for Advancing Translational Sciences (NCATS), 2018).
Among all 48,000 compounds or so, about 1,200 (2.5%) were called active. Another 2% or so got no clear call; they are omitted.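 How the source made its calls: active means activation of at least 60% and not above a set upper limit (about 1 call in 100 departs from these limits); inconclusive means activation of 40% to 60%, or above that upper limit; inactive means activation under 40%.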 This is one part of the list.

The compounds below were run against Probable G-protein coupled receptor 32 (Homo sapiens) (UniProt O75388) (assay: qHTS for Agonists of Human Resolvin D1 Receptor DRV1). Settings: CHO-K1 GPR32 beta-arrestin PathHunter luminescence, 90 min; at 76.9 µM; hits give high values; zero percent set by DMSO-only wells.
UniProt O75388, sequence (O75388 whole entry, looked up): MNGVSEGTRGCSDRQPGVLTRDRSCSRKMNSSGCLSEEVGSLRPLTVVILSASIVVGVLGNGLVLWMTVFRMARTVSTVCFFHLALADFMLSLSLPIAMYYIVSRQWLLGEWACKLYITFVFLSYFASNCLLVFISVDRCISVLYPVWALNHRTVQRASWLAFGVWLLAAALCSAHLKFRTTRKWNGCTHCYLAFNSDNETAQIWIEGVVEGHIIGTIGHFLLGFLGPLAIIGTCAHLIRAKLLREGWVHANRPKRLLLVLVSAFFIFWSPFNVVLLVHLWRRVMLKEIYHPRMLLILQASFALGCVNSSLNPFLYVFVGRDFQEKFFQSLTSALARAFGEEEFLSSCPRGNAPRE
How it was run: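 CHO-K1 cells stably expressing ProLink-tagged GPR32 and Enzyme Activator-tagged beta-arrestin were seeded at 2,500 cells/well overnight, exposed to compounds for 90 min at 37 °C, then read by beta-Gal complementation chemiluminescence after 1 h detection reagent.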
Further: 0% is about no effect.

activation, inactive:
COc1cccc(-n2cc(C(=O)NCCc3ccc(C)cc3)c3ccccc3c2=O)c1 -29%
COc1ccc(NC(=O)c2sc3nc[nH]c(=O)c3c2C)cc1Cl -0.825%
Cn1c(=O)n(-c2ccc3c(c2)OCO3)c2nc(-c3ccccc3)nc(C(N)=O)c21 -0.0169%
COc1ccc(C)cc1NC(=O)c1ccc2c(SCC(=O)O)c3c(nc2c1)CCCC3 -13.9%
CCOc1ccc(NC(=O)C2CC(=O)N(c3ccc(C(C)C)cc3)C2)cc1 (centres undefined) 42.1%
CCOC(=O)CC(NC(=O)Cn1nnc(-c2ccc(C(F)(F)F)cc2)n1)c1ccc(OC)cc1 (centres undefined) 35.8%
Cc1cc(C)cc(NC(=O)CSc2cc(C)[nH]c(=O)n2)c1 11.9%
COc1cccc2c1cc1c(=O)n(CC(=O)N3CCN(c4cccc(C)c4)C(C)C3)nc(C)n12 (centres undefined) -5.74%
CCCC1=Nc2cc(C(=O)NC3CCCC3)ccc2Sc2ccc(C)cc21 -29.3%
COc1cc(CN(C(=O)COc2ccc(C)cc2)c2ccccn2)cc(OC)c1OC -6.61%
CC(=O)Nc1ccc(-c2cc(C(=O)O)c3c(-c4ccccc4)[nH]nc3n2)cc1 -2.33%
CNCCC=C1c2ccccc2CCc2ccccc21 -9.17%
COc1ccc(C(=O)N2CCN(Cc3cc(=O)n4nc(-c5ccccc5C)sc4n3)CC2)cc1OC 8.89%
Cc1cccc(NC(=O)C2CCN(S(=O)(=O)c3ccc(F)cc3)CC2)c1C 24%
CCCCNC(=O)c1nn(-c2ccc(CC)cc2)nc1CO -3.88%
CCCn1c(=O)sc2cc(NC(=O)COc3ccc(Cl)cc3)ccc21 49.4%
CC1CCC(NC(=O)c2ccc3c(c2)N(Cc2cccc(Cl)c2)C(=O)c2ccccc2S3(=O)=O)CC1 (centres undefined) -21.1%
CCOC(=O)c1ccc(NS(=O)(=O)c2ccc3c(c2)n(C)c(=O)n3C)cc1 20.4%
CCN(CC)CC(C)CNC(=O)c1cc(-c2ccc(Br)s2)nc2ccccc12 (centres undefined) 4.86%
COc1cccc(CN(C(=O)c2oc3cc(C)ccc3c2C)C2CCS(=O)(=O)C2)c1 (centres undefined) -30.1%
O=C(Nc1cc(-c2nc3ccccc3s2)ccc1Cl)c1cc2ccccc2o1 -7.52%
CN(Cc1ccccc1)C(=O)c1ccc2c(c1)N(Cc1ccccc1F)C(=O)c1ccccc1S2(=O)=O -5.74%
COc1ccc(OC)c(NC(=O)Cn2cnc3ccc(S(=O)(=O)N4CCC(C)CC4)cc3c2=O)c1 -14.2%
COc1cc(/C=C/c2nc(C#N)c(N3CCCCCC3)o2)cc(OC)c1OC -19.4%
O=S(=O)(Nc1ccccc1C(F)(F)F)c1ccc(N2CCCCS2(=O)=O)cc1 5.83%
CCCOc1cccc(NC(=O)c2c(-c3ccccc3Cl)noc2C)c1 -13.5%
CN(C(=O)CSc1nc2ccc(NC(=O)COc3ccc(Cl)cc3)cc2s1)c1ccccc1 17.2%
Cc1cccc(C)c1NC(=O)Cn1c(=O)n(Cc2ccccc2)c(=O)c2c(C)c(C(=O)N(C)C)sc21 -1.47%
CC(=O)N(Cc1cccnc1)c1nc2c(F)cc(F)cc2s1 -22.1%
Cc1ccc(-c2nc3sc(CCNS(=O)(=O)c4cc(F)ccc4F)c(C)n3n2)cc1 13.2%
Cc1ccc(Cl)cc1-n1c(=O)cc(N2CCN(c3ccc(F)cc3)CC2)[nH]c1=O -12%
Cc1cc(C)c2oc(C(=O)Nc3ccc(S(=O)(=O)N4CCCCC4)cc3)cc(=O)c2c1 -5.39%
Cn1c(=O)c2c(-c3ccc(Cl)cc3)n(Cc3ccccc3)cc2n(C)c1=O 15.5%
COc1ccc(CNC(=O)CSc2nc3ccccc3nc2Cc2ccccc2)cc1 -3.05%
O=C(CSc1nccn1Cc1ccco1)Nc1ccc(F)cc1 -6.46%
CCOC(=O)c1cc(S(=O)(=O)Nc2ccc(C)cc2Cl)[nH]n1 -9.74%
COc1cccc(NC(=O)C2CCC(CNS(=O)(=O)c3ccc4c(c3)CC(C)N4C(C)=O)CC2)c1 (centres undefined) 18.5%
COc1ccc(S(=O)(=O)NCCc2cc3ccc(C)c(C)c3[nH]c2=O)cc1 41.1%
COc1cccc(/C=C/c2nc(C#N)c(NCCN(C)C)o2)c1 -10.7%
COc1ccc(Cn2c(CCC(=O)NCc3cccc(Cl)c3)nc3cccnc32)cc1 -14.1%
CCOC(=O)c1[nH]c(C)c(CCC(=O)NCc2ccc(N(C)C)cc2)c1C -23.3%
Cc1ccc(NC(=O)C2CCN(S(=O)(=O)c3c(C)noc3C)CC2)c(C)c1 -15%
COc1ccc(-c2csc3nc(-c4ccccc4C)oc(=O)c23)cc1OC -0.175%
O=C(/C=C\c1ccc2c(c1)OCO2)NC1CC(=O)N(c2ccc(Cl)cc2)C1 (centres undefined) -1.79%
COc1ccc(C2(Nc3cccc(C(=O)O)c3C)C(=O)c3ccccc3C2=O)cc1 -3.37%
CC(=O)N1CCOc2cc(S(=O)(=O)NCc3ccc(C)cc3)c(Cl)cc21 8.59%
CCSc1nc(-c2ccccc2OC)nc2c1Cc1c(CO)cnc(C)c1O2 2.07%
CCOc1ccccc1NC(=O)c1cc(=O)c2ccc(C)cc2o1 7.65%
COc1ccc(NC(=O)CSc2oc(-c3cccs3)nc2S(=O)(=O)c2ccc(C)cc2)c(OC)c1 -9.86%
O=C(Cc1cccs1)NC1CC(=O)N(c2cccc(F)c2)C1 (centres undefined) -9.39%
CCOC(=O)c1c(C)oc2ncnc(N3CCN(c4ccccc4F)CC3)c12 -48.6%
Cc1cc(C)n2c(Nc3ccc(Cl)cc3)c(-c3ccsc3)nc2n1 -34.2%
COc1cc2nc(NCCC(C)C)n3nc(-c4ccccc4)nc3c2cc1OC -6.04%
CCCCS(=O)(=O)c1oc(-c2cccs2)nc1S(=O)(=O)c1ccccc1 -14%
